# About 230 (0.21%) of roughly 110,000 compounds showed an effect of 50% or more. Some of the results follow.
# Molecular target: DPAP1 (Plasmodium falciparum, UniProt Q8IIJ9)
# Assay: primary screen, percent inhibition; read by cleavage of a fluorogenic dipeptide substrate; higher = more effect of the substance
# Parameters: species or system P. falciparum D10 trophozoite lysates; single well
# 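Note: 30 min substrate incubation versus DMSO and 10 µM JCP410 controls.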
# Sequence of DPAP1 (Q8IIJ9 whole entry, looked up): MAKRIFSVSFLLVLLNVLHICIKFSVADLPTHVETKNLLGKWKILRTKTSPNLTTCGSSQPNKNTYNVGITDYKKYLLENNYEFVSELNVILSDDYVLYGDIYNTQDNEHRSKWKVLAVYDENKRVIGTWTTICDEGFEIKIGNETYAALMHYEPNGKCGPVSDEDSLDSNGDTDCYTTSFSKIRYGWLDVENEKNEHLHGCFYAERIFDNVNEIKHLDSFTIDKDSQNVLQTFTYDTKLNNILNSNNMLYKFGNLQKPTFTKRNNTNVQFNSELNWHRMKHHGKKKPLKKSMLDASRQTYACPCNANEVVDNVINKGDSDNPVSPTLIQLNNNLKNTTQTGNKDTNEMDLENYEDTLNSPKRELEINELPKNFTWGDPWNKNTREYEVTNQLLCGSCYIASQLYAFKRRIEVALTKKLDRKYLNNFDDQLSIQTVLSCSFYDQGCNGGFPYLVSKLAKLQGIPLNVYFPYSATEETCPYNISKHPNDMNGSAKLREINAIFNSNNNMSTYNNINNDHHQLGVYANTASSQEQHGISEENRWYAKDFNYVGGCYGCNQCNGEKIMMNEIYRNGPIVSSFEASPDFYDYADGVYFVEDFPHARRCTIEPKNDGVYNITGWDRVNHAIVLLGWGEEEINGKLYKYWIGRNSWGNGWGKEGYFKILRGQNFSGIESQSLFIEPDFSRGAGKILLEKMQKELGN
row,SMILES,% Inhibition @ 10 uM [%]
1,CC1CCN(c2nc3c(-c4ccc(Cl)cc4)nnn3c3ccccc23)CC1,2.04
2,CCOC(=O)C1=C(CN2CCC3(CC2)OCCO3)NC(=O)NC1c1ccc(C)cc1 (stereo not shown),-7.28
3,Brc1ccc(CN2CCN(c3ncccn3)CC2)s1,-0.261
4,CCOC(=O)c1c(C)[nH]c(C)c1S(=O)(=O)N1CCCCC1C (stereo not shown),3.1
5,O=C(c1cccc(F)c1)c1coc2ccc(Br)cc2c1=O,-2.53
6,CCOC(=O)C1=C(C)N(CC(C)C)C(=O)/C1=C\c1ccc(C(=O)O)cc1,-0.169
7,CCOCCCNC(=O)CCc1c(C)nc2c(c(C)nn2-c2ccc(C)c(C)c2)c1C,-6.03
8,CCc1ccc(-n2nc(C)c3c(C(=O)NC4CCCCC4)cc(C)nc32)cc1,3.2
9,CCOc1cccc(/C=C2/NC(=O)NC2=O)c1O,-1.25
10,Cc1ccccc1N1OC2C(=O)N(c3ccccc3)C(=O)C2C1c1ccco1 (stereo not shown),2.7
11,CC(=O)N1CCN(C/C(C)=C/c2ccccc2)CC1,3.68
12,O=C(COc1ccc([N+](=O)[O-])cc1)c1ccc(Br)cc1,-0.0369
13,C=CCOc1ccc(/C=C2\C(=N)N3N=C(N4CCCCC4)SC3=NC2=O)cc1OC,0.0579
14,CC1=CC2=NC(=O)/C(=C\c3cc(C)n(-c4cccc(C)c4C)c3C)C(=N)N2O1,-3.23
15,CCN(CC)S(=O)(=O)c1ccc(NC(=O)COc2ccc3ccccc3c2)cc1,4.3
16,COc1ccc(OC)c(S(=O)(=O)NC(C)c2ccccc2)c1 (stereo not shown),-6.87
17,Cc1ccc(S(=O)(=O)N2CCC(C(=O)NCc3ccc4c(c3)OCO4)CC2)cc1,0.387
18,CC(C)(C)c1ccc(-c2nc(NCCCN3CCOCC3)c3ccccc3n2)cc1,6.76
19,CCCCNC(=O)CN(c1ccc(F)cc1)S(C)(=O)=O,3.01
20,O=C(NCCN1CCOCC1)c1cc2nc3c(c(C(F)(F)F)n2n1)CCc1ccccc1-3,3.04
21,N#CC(NC(=O)[C@H](CC1CCCCC1)NC(=O)OCc1ccccc1)c1ccccc1 (stereo partly shown),1.71
22,COc1cc2c(cc1OC)C(SC)=NC1(CCCC1)C2,-0.357
23,O=C(NC1CC1)c1ccc(C(=O)NC2CC2)cc1,0.605
24,O=C(CSc1nc2ccsc2c(=O)n1CCCN1CCCCC1)NCCCc1ccccc1,0.359
25,CC(NC(=O)Cn1cc(C(=O)c2ccccc2)c2ccccc21)c1ccccc1 (stereo not shown),-3.76

row,SMILES,% Inhibition @ 10 uM [%]
1,CN1CSC2=C(C#N)C(c3cccc(OCc4ccccc4)c3)CC(=O)N2C1 (stereo not shown),71.1
2,CCC(C)NC(=O)CCn1ccc2cc(S(=O)(=O)N3CCCC3)ccc21 (stereo not shown),-2.68
3,CCC(=O)c1ccc(N2CCN(C(=O)c3cc(F)c(F)cc3C)CC2)c(F)c1,-1.63
4,Cc1ccc(C2CC(C(F)(F)F)n3nc(C(=O)NCc4cnn(C)c4C)cc3N2)cc1 (stereo not shown),3.8
5,Cc1ccccc1-n1c(/C=C/c2cccnc2)nc2ccccc2c1=O,13.8
6,NC(=O)c1ccc(NC(=O)CCCOc2ccc(Cl)cc2Cl)cc1,0.907
7,CCC(C)C(NC(=O)c1ccc(-c2csc(Nc3cccnc3)n2)cc1)C(=O)NCC#N (stereo not shown),-11
8,CC(C)CCNS(=O)(=O)c1csc(C(N)=O)c1,-5.57
9,COCCNC(=O)CN(c1ccc(F)cc1)S(=O)(=O)c1ccccc1,-5.46
10,COc1ccc(-c2csc(Nc3ccc(C)cn3)n2)cc1OC,3.38
11,CNC(=O)Cc1nnc(-c2ccc(C)cc2)o1,2.97
12,O=C(N[C@@H](Cc1ccc2ccccc2c1)C(=O)N[C@@H](Cc1ccccc1)C(=O)C[N+](=O)[O-])OCc1ccccc1,-5.85
13,Cn1c(SCc2ccc(F)cc2)nc2ccc(C(=O)N3CCC(C(N)=O)CC3)cc21,-8.99
14,CCCc1cc(=O)n2nc(N3CCC(C(=O)NCc4ccc(C)o4)CC3)sc2n1,-3.79
15,CN(C)CCOc1ccc2c(c1)Sc1ccccc1CC2=O,-2.18
16,Cc1cc(C)c2nc(N3CCCC(C(=O)N4CCCCCC4)C3)sc2c1 (stereo not shown),1.8
17,CCSc1nc2ccccc2n1CCO,-3.14
18,CCC(CO)Nc1ncnc2onc(-c3ccc(F)cc3)c12 (stereo not shown),1.06
19,Cc1ccc(S(=O)(=O)c2ccc(Sc3ccc(C)c(C)c3)cc2)cc1,3.25
20,Cc1ccc(-n2cc(-c3ccccc3)c3c(N4CCOCC4)ncnc32)cc1Cl,2.56
21,Cc1ccc(C(C)C)c(OCC(=O)NCc2ccccc2)c1,0.00784
22,Cc1ccc2sc(N(CCN(C)C)C(=O)CCS(=O)(=O)c3ccccc3)nc2c1C,-2.5
23,CC1=Nc2ncnn2C(c2cccs2)/C1=C(/O)OCc1ccccc1 (stereo not shown),-0.465
24,COc1ccc2c(c1)C1=C(CC2)C(c2ccccc2)NC(S)=N1 (stereo not shown),0.345

# From article PMC6919601, “Identification of Plasmodium dipeptidyl aminopeptidase allosteric inhibitors by high throughput screening” (PLoS ONE, 2019)
